Hit rate of the full screen: of about 360,000 compounds, about 7,500 (2.1%) were called active. Inconclusive means that the source gave no clear call. Such entries were picked first, then a sample of the others. Calls follow the shape of the dose curve; as a rule, active = well fitted cell-killing curve with a large enough effect; inconclusive = small, poorly fitted or top-dose-only effect, or effect the other way, or another doubt; inactive = no such curve, though single readings can be large or run the other way. No potency is given beside an inconclusive call; the fits are too rough.
experiment: qHTS for induction of synthetic lethality in tumor cells producing 2HG: qHTS for the HT-1080-IDH1KD cell line; conditions: HT-1080 IDH1 knockdown viability, ATP luminescence, 48 h; activity, negative = toxicity: at 46.1 µM (top of the series) unless noted;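 as to activity, negative = toxicity: 0% = DMSO wells and -100% = cell-free medium wells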
Method in brief: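 CellTiter-Glo luminescence after 48 h compound exposure at 37 degrees C of IDH1-knockdown HT-1080 cells in 5% FBS RPMI. %Activity scaled between DMSO wells and cell-free media wells, with curves fitted and assigned curve classes.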
Potency is read from the fitted curve at half-maximal effect; tags tell the direction and shape of the fitted curve.

Row | Compound | Potency | activity, negative = toxicity
1 | COc1ccc(C(=O)/C=C\c2ccc(NC(=O)c3cccs3)cc2)cc1 | inconclusive [cytotoxic, single point] | –
2 | CSc1nc(Cl)c(Cc2ccc(OC(C)C)cc2)c(N2CCOCC2)n1 | inconclusive [cytotoxic, single point] | –
3 | CCCNC(=S)N1CCC(c2nc3cc(C)c(C)cc3[nH]2)CC1 | inconclusive [cytotoxic, single point] | –
4 | Clc1ccc(Cn2cnc3ccccc32)cc1 | inconclusive [cytotoxic, partial curve] | –
5 | COC(=O)CC1C(=O)NC2CCCCC2N1C(=O)CCl (centres undefined) | inconclusive [cytotoxic, single point] | –
6 | CCc1ccc(N2C(=O)C(Cl)=C(Nc3ccc(C(=O)N4CCCC4)cc3)C2=O)cc1 | – | inactive: -26.5%
7 | CCS(=O)(=O)c1ccc(O)c(NC(=O)COc2ccc(OC)cc2)c1 | – | inconclusive: 34.2%
8 | CC1(C)Cc2c(c(-c3ccco3)nc3sc4c(NCC5CCCO5)ncnc4c23)CO1 (centres undefined) | inconclusive [cytotoxic, partial curve] | –
9 | COc1ccc(CCNC(=O)c2coc(=O)c(Br)c2)cc1 | inconclusive [cytotoxic, single point] | –
10 | CN(C)c1ccc(-c2nn3c(-c4ccccc4Cl)nnc3s2)cc1 | inconclusive [cytotoxic, partial curve] | –
11 | OC1(c2ccc(Cl)c(Cl)c2)C[n+]2ccccc2N1Cc1ccccc1 (centres undefined) | active: 20.6 µM | –
12 | COc1cc(NC(=O)c2cc(C)no2)cc(OC)c1OC | – | inconclusive: 31%
13 | CCOc1ccc(N2C(=O)C(CC(=O)Nc3ccccc3)N(Cc3ccccn3)C2=S)cc1 (centres undefined) | inconclusive [cytotoxic, single point] | –
14 | CCCOc1ccc([N+](=O)[O-])c(N)c1 | – | inactive: 0.292%
15 | CC(=O)Nc1cc(C(=O)N2CCCC2)ccc1Sc1ccc(C)cc1 | – | inactive: -1.78%
16 | O=c1cc(-c2ccccc2[N+](=O)[O-])oc2ccccc12 | active: 11.6 µM | –
17 | COc1ccc(S(=O)(=O)c2cnc3ccccc3n2)cc1 | inconclusive [cytotoxic, single point] | –
18 | Cc1ccc(-n2nc3c(N4CCC(C(=O)NCc5cccc(F)c5)CC4)nnc(C)c3c2C)cc1 | inconclusive [cytotoxic, single point] | –
19 | Cc1ccc(S(=O)(=O)Nc2ccc(Nc3nccn4c(-c5ccccc5Oc5ccccc5)cnc34)cc2)cc1 | – | inactive: 16.8%
20 | CCC(=O)N(CC)C1=C(O)c2ccccc2C(=O)C1=O | inconclusive [cytotoxic, single point] | –
21 | CCOc1ccc(-c2cn(-c3ccccc3OC)c(=S)[nH]2)cc1 | active: 25.9 µM | –
22 | CC(C)Oc1ccc(F)cc1-c1cc(C(=O)NCc2cc(C(F)(F)F)cc(C(F)(F)F)c2)[nH]n1 | inconclusive [cytotoxic, single point] | –

Row | Compound | Potency | activity, negative = toxicity
23 | O=C(COC(=O)c1ccccc1C(=O)c1ccccc1)NCCc1ccc(Cl)cc1Cl | inconclusive [cytotoxic, single point] | –
24 | O=C(Nc1ccccc1)c1ccc(-c2ccccc2Cl)o1 | – | inactive: -5.5%
25 | COc1cc(-c2ccc3c(=O)c4ccccc4n(C)c3c2)cc(OC)c1OC | inconclusive [cytotoxic, single point] | –
26 | COC(=O)Cn1c(=NC(=O)c2cc(-c3cccs3)nc3ccccc23)sc2cc(S(N)(=O)=O)ccc21 | inconclusive [cytotoxic, partial curve] | –
27 | CC(C)C[C@H]1CNC(=O)C(=O)N1C[C@@H]1CCCN1C[C@H](Cc1ccc(O)cc1)N1C[C@H](Cc2ccccc2)N(CC2CCCCCC2)C(=O)C1=O | inconclusive [cytotoxic, single point] | –
28 | O=C(/C=C/c1cccs1)c1cc(Br)ccc1OC(=O)N1CCOCC1 | inconclusive [cytotoxic, single point] | –
29 | COc1ccc(NC(=O)C2CC3CCC2C3)c(OC)c1 (centres undefined) | – | inactive: -5.25%
30 | CCC(C(=O)Nc1ccc(C(=O)Nc2ccccc2C(=O)O)cc1)c1ccccc1 (centres undefined) | inconclusive [cytotoxic, single point] | –
31 | Cc1cc(C)n2nc(C(=O)OC(C)C(=O)c3ccccc3)nc2n1 (centres undefined) | – | inactive: -0.756%
32 | CCOc1ccc(S(=O)(=O)N(C)c2ccc(OCC(=O)Nc3nc(-c4cc(OC)ccc4OC)cs3)cc2)cc1 | – | inactive: -0.747%
33 | CCSc1ccc2c(c1)N(CCCN1CCN(C)CC1)c1ccccc1S2 | inconclusive [cytotoxic, single point] | –
34 | CCc1cc(OCCCCNCc2ccccc2)ccc1Cl | inconclusive [cytotoxic, single point] | –
35 | CCC(=O)Nc1ccc(-c2ccc(NC(=O)CC)c(OC)c2)cc1OC | inconclusive [cytotoxic, partial curve] | –
36 | COc1ccc(C(N)=O)c(OCC(=O)Nc2cc(C)on2)c1 | – | inactive: 0%
37 | OC(COc1cccc2ccccc12)CN1CCN(c2ccccc2Cl)CC1 (centres undefined) | inconclusive [cytotoxic, single point] | –
38 | COc1ccc(-n2c(COc3ccc4ccccc4c3)nnc2SCC(=O)NCc2ccco2)cc1 | inconclusive [cytotoxic, single point] | –
39 | O=C(N/N=C/c1ccsc1)c1cc(-c2cccs2)nc2ccccc12 | inconclusive [cytotoxic, single point] | –
40 | Clc1ccc(CN2CCc3c([nH]c4ccccc34)C2)cc1Cl | inconclusive [cytotoxic, single point] | –
41 | CCCC(c1nnnn1CC(=O)OCC)N(Cc1cc2ccc(C)cc2[nH]c1=O)C1CCCC1 (centres undefined) | – | inconclusive: -3.38% [cytotoxic]
42 | Cc1c(O)cccc1C(=O)N[C@@H](CSc1ccccc1)[C@H](O)CN1C[C@H]2CCCC[C@H]2C[C@H]1C(=O)NC(C)(C)C | active: 18.4 µM | –
43 | O=C(O)c1ccc(-n2ncc(Cl)c(Cl)c2=O)cc1 | active: 18.4 µM | –
44 | CCOC(=O)c1c(/N=C/N(C)C)sc(/C=N/Nc2ccccc2)c1-c1ccccc1 | inconclusive [cytotoxic, single point] | –

From PubChem BioAssay AID686971 (National Center for Advancing Translational Sciences (NCATS), 2013)
